Hit rate of the full screen: of about 50,000 compounds, about 800 (1.6%) showed an effect of 50% or more. The list shows a part of the results.

The target of this test is Bcl-2-like protein 10 (Homo sapiens) (UniProt Q9HD36). As to the kind of experiment: TR3 peptide-Bcl-B binding displacers, biochemical primary FP assay, phenotype converters (AID 1240).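 Further: 0% = Bcl-B with tracer peptide and DMSO and 100% = tracer peptide lacking Bcl-B.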 Particulars: GST-Bcl-B / FITC-TR3 peptide fluorescence polarization; stronger effect = higher value; compound at 3.75 mg/L. (In general: In fluorescence polarisation assays a small probe gives low polarisation when free and higher when bound to something large.)
UniProt Q9HD36, sequence (Q9HD36 whole entry, looked up): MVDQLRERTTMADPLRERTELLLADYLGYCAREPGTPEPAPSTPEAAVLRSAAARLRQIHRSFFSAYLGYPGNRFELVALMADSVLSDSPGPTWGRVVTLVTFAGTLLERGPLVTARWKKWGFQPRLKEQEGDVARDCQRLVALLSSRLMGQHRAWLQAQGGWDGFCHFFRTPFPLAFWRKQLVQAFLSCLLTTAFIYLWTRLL
On to `O=C(Nc1ccc(NC(=O)c2ccc(Cl)cc2Cl)c(Cl)c1)c1ccccc1`, for which the displacement was determined as 12.7%.
In the case of `COc1cc([N+](=O)[O-])ccc1-c1ccc(/C=C2\C(=O)NN(c3ccccc3)C2=O)o1`, the displacement was -9.1%.
For the compound `CC(C)OCCCNC(=O)C(=O)NCc1cccc(CNC(=O)C(=O)NCCCOC(C)C)c1`, the displacement was found to be 0.4%.
Take `COc1ccc(CN2CCN(CC3CC4C=CC3C4)CC2)cc1Br` (configuration not stated): the displacement was 16.5%.
For `CCc1ccccc1NC(=O)/C=C/c1ccc(OC)c(Br)c1`, the displacement came out at 2.2%.
As for `O=C(O)c1ccc2c(c1)C(=O)N(c1ccc(-c3nnc(-c4ccccc4)o3)cc1)C2=O`, the displacement was found to be 9%.
`CC1=C(C(=O)OCCc2ccccc2)C(c2ccccc2OC(C)C)CC(=O)N1` (configuration not stated): the displacement is -13%.
In the case of `CCOC(=O)C1=C(C)N=c2s/c(=C\c3ccc4c(c3)OCO4)c(=O)n2C1c1ccc(OC)c(Br)c1` (configuration not stated), the displacement stood at 25.3%.
As for `Cc1ccc(NC(=S)c2ccccn2)cc1`, the displacement came to 0.8%.
For the compound `COC(=O)c1cnn2c(C(F)(F)F)cc(-c3cc(OC)c(OC)c(OC)c3)nc12`, the displacement was -13.7%.
`C=CCN1C(=O)/C(=C\c2ccc(OCc3ccccc3)c(OCC)c2)SC1=S`: the displacement came out at 49.5%.
Consider `COc1ccc(CC(=O)Nc2cccc(C(=O)NCC(C)C)c2)cc1`, for which the displacement was -2.9%.
As for `COc1cc2c(cc1OC)C(NNC(N)=O)=NC(C)(C)C2`, the displacement is 5.6%.
With `O=C1C2C3C=CC(C4CC34)C2C(=O)N1c1cc(Cl)cc(Cl)c1` (configuration not stated) the figure was -5.8%; with `CCSCCOC(=O)C1=C(C)NC2=C(C(=O)CCC2)C1c1ccc(F)c(F)c1` (configuration not stated), -2.4%.
`CCN(CC)CCCCOc1cc(C)ccc1Cl`: the displacement came to 3.4%.
As for `O=C(c1c(F)cccc1F)N1CCN(c2cc(N3CCCC3)c(F)cc2[N+](=O)[O-])CC1`, the displacement is -9.1%.
With `COc1ccccc1NC(=O)c1c(NC(=O)Cc2ccccc2)sc2c1CCC(C)C2` (configuration not stated) the figure was -2.1%.
Next, `Cc1cc(Cl)ccc1OCC(=O)Nc1nc2ccccc2s1`: -7.7%.
With `CC(C)(C)C1(O)CC(C(F)(F)F)=NN1C(=O)c1ccc([N+](=O)[O-])cc1` (configuration not stated), the displacement was determined as 9.4%.
Consider `O=C(c1ccco1)N(O)c1ccccc1`, for which the displacement is -4.7%.
In the case of `CC(=O)Nn1c(O)c(C2=c3cc(C)ccc3=NC2=O)sc1=S`, the displacement was -7.7%.
Take `CCOCCOC(=O)c1ccc(NC(=O)/C=C/c2ccc(OC)c(Br)c2)cc1`: the displacement turned out to be 6.4%.
`COc1ccc2c(c1OC)C(=O)OC2c1cc([N+](=O)[O-])ccc1O` (configuration not stated): the displacement was -3.6%.
`Cc1cc(S(=O)(=O)N2CCCC2C(=O)O)c(C)cc1Cl` (configuration not stated): the displacement was -5.8%.
With `O=C(NCc1ccc2c(c1)OCO2)c1cc(-c2ccccc2Cl)nc2ccccc12` the figure was 7.1%.
As to `COc1ccccc1N(CC(=O)Nc1ccc(C)cc1C)S(=O)(=O)c1ccccc1`, the displacement was determined as 5.7%.
On to `Cc1n[nH]c(C)c1CCC(=O)N/N=C/c1cccs1`, for which the displacement is -5.5%.
With `O=C(Nc1ccc(O)cc1)c1cccc(Oc2ccc([N+](=O)[O-])cc2)c1`, the displacement was determined as 10%.
`O=C1N=C(N2CCOCC2)S/C1=C/c1ccco1`: the displacement came to 35.7%.
As for `CCCCOC(=O)c1cccc(NC(=O)C(C)Oc2ccc(OC)cc2)c1` (configuration not stated), the displacement came to 12.8%.
For `CN(C)c1cccc(C(=O)Nc2ccccc2F)c1`, the displacement came out at 8.2%.
Next, `CC1CCc2c(sc(NC(=O)c3ccccc3)c2C(N)=O)C1` (configuration not stated): 11.2%.
Turning to `O=C(c1ccccc1Cl)c1coc2ccc(Cl)cc2c1=O`, the displacement came out at 6.5%.
Turning to `CCc1cc2c(cc1C(=O)c1ccccc1)OCCO2`, the displacement worked out at 4.5%.
Consider `COc1ccc(/C=N/NC(=O)c2cc(=O)[nH]c3ccccc23)cc1OC`, for which the displacement is -8.7%.
`O=c1c([N+](=O)[O-])c(Nc2ccc(Br)cc2)c2ccccc2n1-c1ccccc1`: the displacement stood at 9.9%.
For `CCOc1ccc(N(CC(=O)Nc2cc(C)ccc2C)S(=O)(=O)c2ccc(SC)cc2)cc1`, the displacement was -0.6%.
`CCCc1cc(=O)oc2c(C)c(OC(C)=O)ccc12`: the displacement was -6.4%.
Take `CC(C)C(=O)Nc1ccc2oc(-c3cccc4ccccc34)nc2c1`: the displacement turned out to be 17.7%.
Consider `O=C(CN(c1cccc([N+](=O)[O-])c1)S(=O)(=O)c1ccccc1)N[C@@H]1C[C@H]2CC[C@@H]1C2`, for which the displacement is -11.4%.
In the case of `CCOc1ccc(-n2c(O)c(C=NCC3(C)CC(O)CC(C)(C)C3)c(=O)[nH]c2=O)cc1` (configuration not stated), the displacement is -45%.
As to `O=C(CC(c1ccccc1)c1cc(C(=O)N2CCOCC2)ccc1O)N1CCOCC1` (configuration not stated), the displacement is -15.2%.
Next, `Cc1cc(C)c2oc(-c3cccc(NC(=O)COc4ccccc4[N+](=O)[O-])c3)nc2c1`: -24.2%.
For `CCCC(=O)NC(c1ccc(OC)c(OC)c1)c1c(OC(C)=O)ccc2ccccc12` (configuration not stated), the displacement was -9.2%.
Take `Cc1ccc2cccc(NS(=O)(=O)c3ccccc3)c2n1`: the displacement is 14%.
With `CCn1nnnc1-c1ccc(OC)c(S(=O)(=O)NCCc2ccccc2)c1` the figure was 7.3%.
Consider `CC(=O)NS(=O)(=O)c1ccc(NC(=O)c2c(C)c(-c3ccccc3)nc3ccccc23)cc1`, for which the displacement was -4.4%.
With `CC(=O)c1ccc(NC(=O)CN(c2cccc([N+](=O)[O-])c2)S(=O)(=O)c2ccccc2)cc1`, the displacement came to 7.7%.
Regarding `c1ccc(-c2cc(-c3ccncc3)nc3ccc4ccccc4c23)cc1`, the displacement stood at 2.4%.
On to `CCOC(=O)c1cc(=O)n2[nH]c(-c3ccc(-c4ccccc4)cc3)cc2n1`, for which the displacement is -0.8%.
With `C=CCN=CC1=C(O)CC(C)(C)CC1=O` the figure was 7.8%; with `CCCCOc1ccc(-c2nc(Cc3ccccc3)no2)cc1`, -9%; with `CC(=O)Nc1ccc(S(=O)(=O)N2CCN=C2C)cc1`, -2.8%.
As for `COc1cccc(-c2cc(C(=O)NCc3cccnc3)c3ccccc3n2)c1`, the displacement is 0.7%.
Consider `N#Cc1c2n(c3c(=O)n(Cc4ccccc4Cl)cnc13)CCCC2`, for which the displacement is -7.7%.
With `Cc1ccc(NC(=O)N(Cc2ccccc2)C(C)C2CC2)cc1` (configuration not stated) the figure was 13%.
With `O=C(NC1CCCCCC1)c1cc(Cl)ccc1[N+](=O)[O-]` the figure was -7.2%.
As to `COc1ccc(/C=C2\C(=O)NC(=O)N(c3ccc(F)cc3)C2=O)cc1OC`, the displacement is -27.7%.
Turning to `COc1cc(OC)cc(C(=O)Nc2ccc(OC)c3ccccc23)c1`, the displacement was 10%.
Regarding `Nc1ccc2nc(-c3cccc(Cl)c3)oc2c1`, the displacement was 33.8%.
As for `Cc1ccc(NCCC(=O)c2cccs2)cc1Cl`, the displacement came to 7.5%.
Next, `Cc1cccc(/C=C2/SC(=S)N(C)C2=O)c1`: 5.6%.
For `O=C(COc1ccccc1[N+](=O)[O-])Nc1ccc(O)c(-c2nc3ccccc3s2)c1`, the displacement is -0.9%.
As for `O=C(CCN1CCOCC1)c1ccc(Cl)cc1`, the displacement was -3.9%.
`Nc1ccc(S(=O)(=O)N2CCc3ccccc32)cc1`: the displacement is -8.3%.
As for `Cc1ccccc1-n1c(C)cc(/C=N/NC(=O)c2cccnc2)c1C`, the displacement is -30.1%.
For `CC(C)(C)C(C)(O)C#CCN1CCOCC1` (configuration not stated), the displacement was 3.9%.
With `CCOc1cccc(C(=O)Nc2nnc(-c3ccco3)s2)c1` the figure was 6.1%; with `CCN(CC)c1ccc(/C=C2\SC(N3CCCC3)=NC2=O)cc1`, -76.5%.
With `COc1ccc(N(CC(=O)NC(C)(C)C)S(=O)(=O)c2ccccc2[N+](=O)[O-])c(OC)c1` the figure was -1.3%.
Consider `Cc1ccc(S(=O)(=O)NCc2ccc3c(c2)OCO3)cc1`, for which the displacement is -7.8%.
With `O=C(Nc1ccc(F)cc1)c1ccc(-c2ccccc2)cc1` the figure was 13.9%.
With `NS(=O)(=O)c1ccc(NC(=O)COc2ccc3ccccc3c2)cc1`, the displacement turned out to be 3%.
Regarding `COc1ccc(/C=N/NC(=O)C(=O)NCc2ccc(Cl)cc2)cc1`, the displacement was 12.4%.
Next, `Cc1ccc(C(=O)NCc2ccncc2)cc1[N+](=O)[O-]`: -2.5%; `O=C(Nc1cccc(Cl)c1)C1CC(=O)N(c2ccc(Br)cc2)C1` (configuration not stated): -1.1%; `CCOc1ccc(C2=C/C(=C/c3ccc(OC)cc3)C(=O)O2)cc1`: -0.6%.
Next, `CCOC(=O)C(C)Oc1cccc2c1ccc1c(-c3ccccc3)cc(=O)oc12` (configuration not stated): 11.4%.
Next, `Cc1cccc(CN2CCN(C(=O)c3cccs3)CC2)c1`: 12.7%; `O=C1c2ccccc2C(=O)N1CCc1nc2ccccc2c(=O)n1-c1cccnc1`: -6.2%; `NNC(=O)CNC(c1ccccc1)c1cc(Br)ccc1NC(=O)c1ccccc1Cl` (configuration not stated): -16.1%.
As to `O=C1NC(=Nc2ccc(O)cc2)CS1`, the displacement was 2.6%.
As for `Cc1cccc(C)c1NC(=O)COc1ccc(Cl)cc1Cl`, the displacement came out at 11.4%.
Next, `COc1ccc(NC(=O)CCCOc2ccccc2)c(OC)c1`: -3.2%; `Fc1ccccc1C=NN1CCN(Cc2ccccc2)CC1`: -0.6%; `CCOc1ccc2nc(Nc3nc(O)c(C)c(=O)[nH]3)nc(C)c2c1`: -1.1%.
`Oc1ccc2ccccc2c1/C=N/Nc1nnc(-c2ccccc2)c(-c2ccccc2)n1`: the displacement turned out to be 1.7%.
Consider `Cc1c(C(=O)Nc2ccc([N+](=O)[O-])cc2)cnn1-c1ccccc1`, for which the displacement stood at 6.5%.
Next, `COc1ccc(N2C(=O)NC(=O)/C(=C\c3ccccc3Cl)C2=O)cc1`: -6.1%; `CC1=C(C(=O)OC(C)C)C(c2ccc(F)cc2)NC(=S)N1` (configuration not stated): 4.7%; `CCN1C(=O)/C(=C\c2ccc(OC(=O)c3cccs3)c(OC)c2)SC1=S`: 12.9%.
With `CCOC(=O)COc1ccccc1/C=C1\C(=O)NC(=O)N(c2ccc(C)cc2)C1=O` the figure was -22.2%; with `CCOC(=O)CSCCOc1ccc(/C=C2/C(=O)NC(=O)N(c3ccc(C)cc3)C2=O)cc1OC`, 8.7%.
As for `CC(=O)c1cc(C(=O)CC(=O)Nc2cccc([N+](=O)[O-])c2)sc1Nc1ccccc1`, the displacement turned out to be 47.9%.
With `CCOC(=O)c1[nH]c(C)c(C(C)=O)c1C`, the displacement stood at 0.5%.
In the case of `C=CCOc1ccc2c(=O)c(-c3ccccc3OC)coc2c1`, the displacement is 8.6%.
For the compound `CC1(C)CC(=O)C2=C(C1)Nc1ccccc1N(C(=O)C(F)(F)F)C2c1ccc(-c2ccc(Br)cc2)o1` (configuration not stated), the displacement was -8.5%.
Next, `N#C/C(=C/c1ccc2c(c1)OCO2)C(=O)Nc1cccc(Br)c1`: -10.3%.
With `S=C(Nc1ccccc1)Nc1ccc(Cc2ccc(NC(=S)Nc3ccccc3)cc2)cc1` the figure was 10.2%; with `CCOC(=O)c1c(NC(=O)CNCCO)sc(C)c1C`, -4.1%; with `CCOC(=O)CCCN1C(=O)/C(=C/c2ccccc2)SC1=S`, 17.7%.
`COC(=O)c1cc(C(=O)Nc2ccccc2C(N)=O)cc([N+](=O)[O-])c1`: the displacement was 2.8%.
With `COc1ccccc1N1CCN(CC(O)COc2ccc(C34CC5CC(CC(C5)C3)C4)cc2)CC1` (configuration not stated) the figure was -3.3%.
Regarding `O=C(O)Cc1ccc(NC(=O)C2CCCCC2C(=O)O)cc1` (configuration not stated), the displacement is -5.7%.
For `COc1ccc(/C=C2/SC(=O)N(CNc3ccc(Br)cc3C)C2=O)c(OC)c1`, the displacement worked out at 31.7%.
Take `CCOc1ccccc1/C=C/C(=O)c1cccc(Br)c1`: the displacement was -8.9%.

The record behind these values is PubChem BioAssay AID1240 (Sanford-Burnham Center for Chemical Genomics, 2008).
